The values that follow come from paper PMC7819943, “Rice protein-binding microarrays: a tool to detect cis-acting elements near promoter regions in rice”.

Some of the results follow.

The test addresses T1, OsWOX13 (Oryza sativa, UniProt Q5QMM3 1-267).
T1 sequence: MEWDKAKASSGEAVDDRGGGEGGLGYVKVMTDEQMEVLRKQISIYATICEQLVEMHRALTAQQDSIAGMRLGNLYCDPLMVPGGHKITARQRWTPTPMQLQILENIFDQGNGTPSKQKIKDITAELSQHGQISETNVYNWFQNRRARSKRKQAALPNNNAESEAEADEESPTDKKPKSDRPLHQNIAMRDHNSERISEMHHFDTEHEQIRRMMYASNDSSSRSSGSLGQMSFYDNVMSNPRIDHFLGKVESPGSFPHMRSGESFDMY
The test is described as follows: protein-binding microarray (RPBM); PBS, 2% BSA, 51.3 ng/ul salmon testes DNA, 50 uM zinc acetate, 200 nM TF, 25 C, 1 h; high values mean tight binding. The settings on record: protein: recombinant; tags: N-terminal polyhistidine and DsRed monomer fusion (pET32a); label: CyDye5-dUTP incorporated in the synthesized complementary strand; 3' TTTTT single-stranded linker to array surface; dsDNA, one strand shown. The procedure, abridged: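 The binding signal for each feature is its fluorescence intensity in arbitrary units. An Axon 4000B scanner was used to read a custom Agilent array that had been made double-stranded with Cy5-dUTP primer extension, blocked with 2% BSA, incubated at 25 °C for 1 h with 200 nM protein in PBS, 2% BSA, salmon testes DNA and 50 µM zinc acetate, and washed. The protein was an N-terminal polyhistidine–DsRed transcription factor fusion from E. coli BL21-CodonPlus, purified on Ni–NTA.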
For the sequence “CGTTATTAAGGGTAAATTATAAATTTACTAATATAATGATCGGAGTCACCTAGTGCAG”, the binding signal was 4480 fluorescence intensity (a.u.).

For the sequence “CATCTCAGTGCCGATTGCTTGATTAGCCCTAGCGACACGGCGGAGTCACCTAGTGCAG”, the binding signal is 4390 fluorescence intensity (a.u.).

Consider “TTGAACAAAATTAACAATATCGATTAATTCTGTATATGCACGGAGTCACCTAGTGCAG”, for which the binding signal is 9400 fluorescence intensity (a.u.).

In the case of “CCAAGAGTAATTGTATTTATCCGTGAGATAAATTATAGGGCGGAGTCACCTAGTGCAG”, the binding signal is 7450 fluorescence intensity (a.u.).

For the sequence “TTACATGTTAAATAAATTTTACTCCCAATTAGCTACGCGACGGAGTCACCTAGTGCAG”, the binding signal was 7120 fluorescence intensity (a.u.).

“TATAATGTGTCCTGACTGACTCGATAACTTATGGTGGTAGCGGAGTCACCTAGTGCAG”: the binding signal is 14800 fluorescence intensity (a.u.).

With “CTACTAATTTCACAAACGTGGGCCCGGTCCATCCATCGTACGGAGTCACCTAGTGCAG”, the binding signal was 6960 fluorescence intensity (a.u.).

As to “ATACAATGATATATCAAATTTCAACCGTTTTCCCAAAGCTCGGAGTCACCTAGTGCAG”, the binding signal was 3550 fluorescence intensity (a.u.).

On to “ATATAACGGAATTATTTAAAGTTGACACCAATAGAGGACTCGGAGTCACCTAGTGCAG”, for which the binding signal was 5960 fluorescence intensity (a.u.).

For the sequence “AGATTAAATTAGAGGCCCATAACCGAGCGGCCCAATCATGCGGAGTCACCTAGTGCAG”, the binding signal was 12800 fluorescence intensity (a.u.).

In the case of “ATTAAAATCAACTCCTGATTATAAGTATACCGTTTATTAGCGGAGTCACCTAGTGCAG”, the binding signal is 13700 fluorescence intensity (a.u.).

For the sequence “ACAATAAACTGCGGATTCTTTCTTTCTCTTCCATTCTTACCGGAGTCACCTAGTGCAG”, the binding signal is 3660 fluorescence intensity (a.u.).

As for “CTCCAATCAACTTGCATAGACTGGCTGGTGGGGCCACGGTCGGAGTCACCTAGTGCAG”, the binding signal was 31200 fluorescence intensity (a.u.).

Take “ATTCTCACTAGTTCCAAAATCAATTAGCATGTGCGTTGATCGGAGTCACCTAGTGCAG”: the binding signal was 3410 fluorescence intensity (a.u.).

Take “ACTGTCATAGAACCTTGATTGCACGGTTTGTGTGAGTTTACGGAGTCACCTAGTGCAG”: the binding signal is 5570 fluorescence intensity (a.u.).

In the case of “AAGAGAGAAACAATTACAGTTAATTAGGGTTAATCAGAAGCGGAGTCACCTAGTGCAG”, the binding signal is 9810 fluorescence intensity (a.u.).

For the sequence “CGCAAATTAGTCCAAGATTATGGATGGGTTTTATTAATAGCGGAGTCACCTAGTGCAG”, the binding signal was 27500 fluorescence intensity (a.u.).

For “TTCCTAAATTGCCATGTGGTGCTCCTTCAAACACTTCTAACGGAGTCACCTAGTGCAG”, the binding signal was 5010 fluorescence intensity (a.u.).

Take “AAAACTTAATTAGTGCCAGGTCATACAGATTCCAGATAATCGGAGTCACCTAGTGCAG”: the binding signal was 10600 fluorescence intensity (a.u.).

On to “ATGAAATCAAGGTTTTGCAAATTGAAATCCATGTTTTGGTCGGAGTCACCTAGTGCAG”, for which the binding signal was 8140 fluorescence intensity (a.u.).

For “TTCGTCGTCGTCCTCCTCAATCACATATTGGAGACAGCGACGGAGTCACCTAGTGCAG”, the binding signal is 3510 fluorescence intensity (a.u.).

Regarding “TATGTAACTAATTAATATATGTATGCAGGCGCAACTCCTACGGAGTCACCTAGTGCAG”, the binding signal is 9920 fluorescence intensity (a.u.).

For the sequence “AAAACCTCCCGGTCAATCAAGCTATATATCTGTAATACACCGGAGTCACCTAGTGCAG”, the binding signal was 5280 fluorescence intensity (a.u.).

For “ACTCCATCTCCTTGCTGATTATGAATTCCAGCACCCTCATCGGAGTCACCTAGTGCAG”, the binding signal was 5520 fluorescence intensity (a.u.).

For “GTATATTCTGATTCAATTATAATTTCCCCATCGATCATTTCGGAGTCACCTAGTGCAG”, the binding signal is 9130 fluorescence intensity (a.u.).

Consider “TGTGCTGATTTGGCAAAGAACTAAAGCGAGGAGAGATACACGGAGTCACCTAGTGCAG”, for which the binding signal was 3360 fluorescence intensity (a.u.).

In the case of “AACAGTAATCTAATTATCTAATCTGAACTCCGGGTAGTTCCGGAGTCACCTAGTGCAG”, the binding signal is 18200 fluorescence intensity (a.u.).

Regarding “GTGGTTTAATAATTTGATCAAAATATCTGTAGTTCACGGACGGAGTCACCTAGTGCAG”, the binding signal is 9940 fluorescence intensity (a.u.).

Consider “TTTGTAAATTGAGTGACCCGTTATATTTGGTATTTCAGTTCGGAGTCACCTAGTGCAG”, for which the binding signal is 24100 fluorescence intensity (a.u.).

Take “TATAAATTAAAATTTGGCTTATAACCCCAAGCATAAACCTCGGAGTCACCTAGTGCAG”: the binding signal was 21000 fluorescence intensity (a.u.).

For the sequence “TTTTAATTTTCTTAATCAAGCCGACCGGGGTTAATGCTGCCGGAGTCACCTAGTGCAG”, the binding signal is 28100 fluorescence intensity (a.u.).

Turning to “GTGATTGGCTTTGAGTACGATCATCAGATTGTATTGTTACCGGAGTCACCTAGTGCAG”, the binding signal is 45000 fluorescence intensity (a.u.).

Regarding “ATTTTAAATTTACAATAAAATCAATAAGATCAAAGTGAAACGGAGTCACCTAGTGCAG”, the binding signal was 3630 fluorescence intensity (a.u.).

As for “TCGGAGATTAGCACACAAAGACTAGCACACAGCAAGGCCCCGGAGTCACCTAGTGCAG”, the binding signal is 3230 fluorescence intensity (a.u.).

With “AACCATCCATGATTAGCGATTGATACGATGACGTTTGGGTCGGAGTCACCTAGTGCAG”, the binding signal was 25600 fluorescence intensity (a.u.).

For “TAAGTGGAGTAATTAGCTAAATAATCTATACTAGTAACCACGGAGTCACCTAGTGCAG”, the binding signal is 4730 fluorescence intensity (a.u.).

On to “ATTAAAATATAATAAATTTGATATTAAGATTTTACCTGTACGGAGTCACCTAGTGCAG”, for which the binding signal is 6670 fluorescence intensity (a.u.).

Regarding “AGAACAAATATAATTTAACACACAAACTTCATACTCCTATCGGAGTCACCTAGTGCAG”, the binding signal is 4240 fluorescence intensity (a.u.).

As to “CAATTATCAATCAGTCTGAAATCTTGCATTTGCATTTGCACGGAGTCACCTAGTGCAG”, the binding signal is 22400 fluorescence intensity (a.u.).

Take “ATCACGAATTTGTCAACATGGCCAATCAAGCAATATTCAGCGGAGTCACCTAGTGCAG”: the binding signal was 6060 fluorescence intensity (a.u.).

As for “AAGAATAATTATACCGAGTACATATTAATCTGTGCAGCCTCGGAGTCACCTAGTGCAG”, the binding signal was 14300 fluorescence intensity (a.u.).

For the sequence “TGCTAATTTTATTGTTAATTTAACTCGTATCTTGTGGCAACGGAGTCACCTAGTGCAG”, the binding signal is 25900 fluorescence intensity (a.u.).
